No constants are given. Whether binding was seen depends on the method and setting. In cells and extracts the contact can be indirect. Some entries that bind do so weakly or less than the wild type. Tags and fused reporters may be left off the sequences shown.

Chains of the proteins cited; added tags and fusions are not shown.
UniProt O60260: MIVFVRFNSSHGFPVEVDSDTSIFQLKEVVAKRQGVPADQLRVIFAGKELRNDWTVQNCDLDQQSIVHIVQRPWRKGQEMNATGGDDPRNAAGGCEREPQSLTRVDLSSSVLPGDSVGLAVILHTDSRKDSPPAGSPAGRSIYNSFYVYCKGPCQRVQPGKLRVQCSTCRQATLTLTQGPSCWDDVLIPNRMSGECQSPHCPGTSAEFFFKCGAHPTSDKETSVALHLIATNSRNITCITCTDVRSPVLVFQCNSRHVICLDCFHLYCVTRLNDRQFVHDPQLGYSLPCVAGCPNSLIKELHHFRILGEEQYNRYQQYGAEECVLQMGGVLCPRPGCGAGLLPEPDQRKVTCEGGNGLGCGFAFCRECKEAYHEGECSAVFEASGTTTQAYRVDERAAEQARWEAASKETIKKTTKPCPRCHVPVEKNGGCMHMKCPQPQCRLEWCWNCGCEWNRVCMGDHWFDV

The target of the assay is Flag-Parkin (UniProt O60260). The experiment in a line: co-IP; 293T cells co-transfected, 24 h, untreated or treated with CCCP (10 uM) for 12 h; lysis in 50 mM Tris-HCl pH 7.6, 150 mM NaCl, 0.5% Triton-X-100; anti-Flag agarose at 4 C overnight, washed four times with RIPA buffer; immunoblot.

B1: HA-MDA5 (receptor, UniProt Q9BYX4 1-1025)
chain: MSNGYSTDENFRYLISCFRARVKMYIQVEPVLDYLTFLPAEVKEQIQRTVATSGNMQAVELLLSTLEKGVWHLGWTREFVEALRRTGSPLAARYMNPELTDLPSPSFENAHDEYLQLLNLLQPTLVDKLLVRDVLDKCMEEELLTIEDRNRIAAAENNGNESGVRELLKRIVQKENWFSAFLNVLRQTGNNELVQELTGSDCSESNAEIENLSQVDGPQVEEQLLSTTVQPNLEKEVWGMENNSSESSFADSSVVSESDTSLAEGSVSCLDESLGHNSNMGSDSGTMGSDSDEENVAARASPEPELQLRPYQMEVAQPALEGKNIIICLPTGSGKTRVAVYIAKDHLDKKKKASEPGKVIVLVNKVLLVEQLFRKEFQPFLKKWYRVIGLSGDTQLKISFPEVVKSCDIIISTAQILENSLLNLENGEDAGVQLSDFSLIIIDECHHTNKEAVYNNIMRHYLMQKLKNNRLKKENKPVIPLPQILGLTASPGVGGATKQAKAEEHILKLCANLDAFTIKTVKENLDQLKNQIQEPCKKFAIADATREDPFKEKLLEIMTRIQTYCQMSPMSDFGTQPYEQWAIQMEKKAAKEGNRKERVCAEHLRKYNEALQINDTIRMIDAYTHLETFYNEEKDKKFAVIEDDSDEGGDDEYCDGDEDEDDLKKPLKLDETDRFLMTLFFENNKMLKRLAENPEYENEKLTKLRNTIMEQYTRTEESARGIIFTKTRQSAYALSQWITENEKFAEVGVKAHHLIGAGHSSEFKPMTQNEQKEVISKFRTGKINLLIATTVAEEGLDIKECNIVIRYGLVTNEIAMVQARGRARADESTYVLVAHSGSGVIEHETVNDFREKMMYKAIHCVQNMKPEEYAHKILELQMQSIMEKKMKTKRNIAKHYKNNPSLITFLCKNCSVLACSGEDIHVIEKMHHVNMTPEFKELYIVRENKALQKKCADYQINGEIICKCGQAWGTMMVHKGLDLPCLKIRNFVVVFKNNSTKKQYKKWVELPITFPNLDYSECCLFSDED
For B1, the binding result is “binds”.

B2: HA-RIG-I (receptor, UniProt O95786 1-925)
chain: MTTEQRRSLQAFQDYIRKTLDPTYILSYMAPWFREEEVQYIQAEKNNKGPMEAATLFLKFLLELQEEGWFRGFLDALDHAGYSGLYEAIESWDFKKIEKLEEYRLLLKRLQPEFKTRIIPTDIISDLSECLINQECEEILQICSTKGMMAGAEKLVECLLRSDKENWPKTLKLALEKERNKFSELWIVEKGIKDVETEDLEDKMETSDIQIFYQEDPECQNLSENSCPPSEVSDTNLYSPFKPRNYQLELALPAMKGKNTIICAPTGCGKTFVSLLICEHHLKKFPQGQKGKVVFFANQIPVYEQQKSVFSKYFERHGYRVTGISGATAENVPVEQIVENNDIIILTPQILVNNLKKGTIPSLSIFTLMIFDECHNTSKQHPYNMIMFNYLDQKLGGSSGPLPQVIGLTASVGVGDAKNTDEALDYICKLCASLDASVIATVKHNLEELEQVVYKPQKFFRKVESRISDKFKYIIAQLMRDTESLAKRICKDLENLSQIQNREFGTQKYEQWIVTVQKACMVFQMPDKDEESRICKALFLYTSHLRKYNDALIISEHARMKDALDYLKDFFSNVRAAGFDEIEQDLTQRFEEKLQELESVSRDPSNENPKLEDLCFILQEEYHLNPETITILFVKTRALVDALKNWIEGNPKLSFLKPGILTGRGKTNQNTGMTLPAQKCILDAFKASGDHNILIATSVADEGIDIAQCNLVILYEYVGNVIKMIQTRGRGRARGSKCFLLTSNAGVIEKEQINMYKEKMMNDSILRLQTWDEAVFREKILHIQTHEKFIRDSQEKPKPVPDKENKKLLCRKCKALACYTADVRVIEECHYTVLGDAFKECFVSRPHPKPKQFSSFEKRAKIFCARQNCSHDWGIHVKYKTFEIPVIKIESFVVEDIATGVQTLYSKWKDFHFEKIPFDPAEMSK
For B2, the binding entry was “binds”.

(Values after publication PMC7492610.)
